# Reference: PubChem BioAssay AID1030 (National Center for Advancing Translational Sciences (NCATS), 2008)
# Hit rate of the full screen: of about 220,000 compounds, about 16,000 (7.3%) were called active. This list was built around the results that the source calls inconclusive (neither active nor inactive); the mix of calls is not that of the screen. The call rests on the fitted dose curve; in most records, active means well fitted inhibition curve with a large enough effect (not every such curve was filed as active); inconclusive means small, poorly fitted or top-dose-only effect, or another doubt; inactive means no such curve, though single readings can be large or run the other way. No potency is given beside an inconclusive call; the fits are too rough.
# Target: Aldehyde dehydrogenase 1A1 (Homo sapiens) (UniProt P00352)
# Experiment: qHTS Assay for Inhibitors of Aldehyde Dehydrogenase 1 (ALDH1A1);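 on activity, negative = inhibition: plate controls were no enzyme wells and a reference inhibitor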
# Details: Purified ALDH1A1, NADH fluorescence, propionaldehyde substrate; series mostly up to 75.3 µM; activity, negative = inhibition: at the top concentration
# Potency means the concentration at half of the fitted maximal effect; tags describe the fitted curve by direction and shape.
# Chain of UniProt P00352 (P00352 whole entry, looked up): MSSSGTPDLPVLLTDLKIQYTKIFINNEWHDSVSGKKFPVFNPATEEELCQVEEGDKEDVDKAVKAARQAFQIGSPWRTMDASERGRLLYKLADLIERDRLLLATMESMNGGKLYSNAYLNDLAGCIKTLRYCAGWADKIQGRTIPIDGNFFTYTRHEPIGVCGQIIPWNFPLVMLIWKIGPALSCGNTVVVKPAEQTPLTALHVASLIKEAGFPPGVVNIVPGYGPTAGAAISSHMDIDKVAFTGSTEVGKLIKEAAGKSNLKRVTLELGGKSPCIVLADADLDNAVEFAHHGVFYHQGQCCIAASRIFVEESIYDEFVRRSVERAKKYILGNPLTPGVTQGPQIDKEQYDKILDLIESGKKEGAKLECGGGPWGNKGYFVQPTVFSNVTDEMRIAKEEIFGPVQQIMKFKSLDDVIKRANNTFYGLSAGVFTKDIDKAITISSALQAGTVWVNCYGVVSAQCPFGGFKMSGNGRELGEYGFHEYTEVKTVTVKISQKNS
SMILES,Potency,"activity, negative = inhibition"
COc1ccc(Sc2nc(-c3ccccn3)ncc2OC)cc1,"inconclusive [inhibitor, single point]",
CC(/C=N/NC(=O)c1cc(-c2ccc(Cl)cc2)nc2ccccc12)=C\c1ccco1,"inconclusive [inhibitor, single point]",
COc1cccc(CC(=O)N[C@@H](CCSC)c2nc3ccccc3[nH]2)c1,"inconclusive [inhibitor, single point]",
COc1ccc(CCC(=O)Nc2ccc(C)c([N+](=O)[O-])c2)cc1,active: 10 µM,
CC(N)CCCC(C)(C)O (centres undefined),,inactive: -0.425%
Cn1cc(-c2nc3cnc(Oc4ccccc4)nc3n(C3CC3)c2=O)c2ccccc21,,inactive: -0.902%
O=C(NCCCn1ccnc1)C(=O)c1cn(CC(=O)N2CCCCCC2)c2ccccc12,active: 14.1 µM,
O=C(CCCOc1ccccc1)NCc1ccco1,"inconclusive [inhibitor, single point]",
O=C(O)CCCCOn1ccnc1,,inactive: -0.454%
COc1ccc(C(=O)Nc2nncs2)cc1S(=O)(=O)N1CC(c2ccccc2)CC1=O (centres undefined),"inconclusive [inhibitor, single point]",
CCOC(=O)c1sc(=S)n(-c2ccccc2Cl)c1SC,active: 17.8 µM,
Cc1c(C(=O)N2CCCCC2)sc(NC(=O)C2CC2)c1C#N,,inactive: -6.32%
COc1ccc(-n2c(C)c([N+](=O)[O-])c3ccc(O)c(CN4CCCCC4)c32)cc1,"inconclusive [inhibitor, single point]",
CCN(CC)C1=N/C(=C\c2ccco2)C(=O)N1c1ccccc1,"inconclusive [inhibitor, partial curve]",
O=C(NC(=S)Nc1ccc(NC(=O)c2cccs2)cc1)c1cc2ccccc2o1,,inactive: -8.79%
CC(C)COc1cccc(C(=O)Nc2ccc(S(=O)(=O)N3CCOCC3)cc2)c1,"inconclusive [inhibitor, single point]",
O=C(CSc1nc(O)cc(=O)[nH]1)N1CCCc2ccccc21,active: 22.4 µM,
Nc1nnnn1CC(=O)N/N=C/c1ccc(-c2cccc(Cl)c2)o1,"inconclusive [inhibitor, single point]",
COc1cc(/C=N/NC(=O)c2cccnc2)ccc1OS(=O)(=O)c1ccc(C)cc1,active: 3.55 µM,
O=C(NCCCO)c1ccc(CSc2nc3ccccc3[nH]2)cc1,,inactive: -10.8%
Cc1csc2ncc(C(=O)NCCc3ccccc3)c(=O)n12,"inconclusive [inhibitor, partial curve]",
COc1cc2c(cc1OC)-c1nncn1C(C)(C)C2,"inconclusive [inhibitor, single point]",
CC1CCN(S(=O)(=O)c2ccc3[nH]cc(C(=O)NCCN4CCOCC4)c(=O)c3c2)CC1,"inconclusive [inhibitor, single point]",
CCOc1ccccc1NC(=O)CSc1nnnn1Cc1ccccc1,,inactive: 1.06%
COCCCNC(=O)c1ccc([N+](=O)[O-])c(Cl)c1,"inconclusive [inhibitor, single point]",

SMILES,Potency,"activity, negative = inhibition"
COC(=O)CN1C(=O)C2(C(C#N)=C(N)Oc3cc(C)oc(=O)c32)c2ccccc21 (centres undefined),active: 6.31 µM,
CCc1cc(C(=O)OC)c(NC(=O)CCCC(=O)O)s1,,inactive: -2.38%
CSc1nnc(-c2ccco2)c(-c2ccco2)n1,active: 3.55 µM,
COC(=O)c1ccc(OC(=O)c2ccccc2F)cc1,"inconclusive [inhibitor, single point]",
CC(C)(C)c1ccc(S(=O)(=O)/C=C/C#N)cc1,active: 0.112 µM,
O=C(CCN1c2ccccc2Sc2ccccc21)OCC(=O)N1CCN(C(=O)c2ccco2)CC1,"inconclusive [inhibitor, single point]",
COC(=O)c1cn[nH]c1NC(=S)Nc1ccc(Cl)c(Cl)c1,"inconclusive [inhibitor, single point]",
O=C(CC12CCC(CC1)C2)NCc1ccc2c(c1)OCO2,,inactive: -10.2%
CN(C)Cc1ccccc1-c1cncnc1Nc1ccc(F)cc1,,inactive: 14.1%
Cc1ccc2nc3c(cc(C(=O)NC4CCCC4)c(=N)n3CCCn3ccnc3)c(=O)n2c1,"inconclusive [inhibitor, partial curve]",
O=C(c1ccco1)N1CCC2(CC1)CCN(c1cccc(-c3ccccc3)c1)CC2,active: 28.2 µM,
COCCNS(=O)(=O)c1ccc(C)c(C)c1C,"inconclusive [inhibitor, single point]",
O=C(NC(CSCc1ccccc1)C(=O)N/N=C/c1ccc(O)cc1O)c1ccc([N+](=O)[O-])cc1 (centres undefined),"inconclusive [inhibitor, partial curve]",
N#C/C(=C\c1ccc(-c2ccccc2[N+](=O)[O-])o1)C(N)=O,,inactive: 4.16%
COc1ccc(NC(=O)CN2CCN(c3ccccc3F)CC2)cc1,"inconclusive [inhibitor, single point]",
CCOc1ccc(C(=O)C2CCN(CC(=O)Nc3ccccc3N3CCOCC3)CC2)cc1,active: 25.1 µM,
O=C(/C=C/Nc1cccc(C(F)(F)F)c1)c1ccc(Oc2ncccn2)cc1,"inconclusive [inhibitor, partial curve]",
O=C1COC(c2ccccc2O)=NN1CCCN1CCCC1,,inactive: 4.61% [at 13.5 µM]
O=C(NCCCn1ccnc1)c1cc(S(=O)(=O)N2CCOCC2)ccc1F,,inactive: 4.38%
COc1ccc(-c2nc3ccccn3c2NCc2ccc3c(c2)OCO3)cc1,"inconclusive [inhibitor, partial curve]",
O=C(Nc1nc(-c2ccccn2)cs1)c1ccco1,active: 35.5 µM,
COc1ccccc1C(=O)Nc1ccc(-c2nnn(CC(=O)N3CCN(C(=O)c4ccco4)CC3)n2)cc1,"inconclusive [inhibitor, single point]",
Cn1c(SCC(=O)N/N=C/c2ccccn2)nnc1-c1ccccc1,,inactive: 10.5%
COc1ccc(CS(=O)/C(Cl)=C(/Cl)C(=O)Nc2ccc(OC)nc2)cc1 (centres undefined),active: 8.91 µM,
